Counter-ions that a name gives are not always drawn. ± gives the standard deviation of the averaged measurements. This is one part of the list.
These molecules were tested on hAMSC donor 2 (assay: Hoechst total cell count ratio vs vehicle control; hAMSC are human adipose-derived mesenchymal stem cells given an EGFP-luciferase plasmid by lipofection; higher = more cells (less toxicity)). Conditions: priming compound concentration 100 µM.
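Further: compound added 30 min before Lipofectamine 3000 lipoplex delivery, triplicate-well means expressed against DMSO vehicle control wells of the same 96-well plate.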

SMILES | Hoechst total cell count ratio
C=C(CC)C(=O)c1ccc(OCC(=O)O)c(Cl)c1Cl [Ethacrynic acid] | 0.51 ± 0.16
CN(C)CCC=C1c2ccccc2CCc2ccccc21 [Amitriptyline hydrochloride] | 0.905 ± 0.16
C[C@]12C=CC(=O)C=C1CC[C@@H]1[C@@H]2C(=O)C[C@@]2(C)[C@H]1CC[C@]2(O)C(=O)CO [Prednisone] | 1.16 ± 0.53
Nc1nc(=O)c2nc(CNc3ccc(C(=O)N[C@@H](CCC(=O)O)C(=O)O)cc3)cnc2[nH]1 [Folic acid] | 1.09 ± 0.042
CC[C@H]1OC(=O)[C@H](C)[C@@H](O[C@H]2C[C@@](C)(OC)[C@@H](O)[C@H](C)O2)[C@H](C)[C@@H](O[C@@H]2O[C@H](C)C[C@H](N(C)C)[C@H]2O)[C@](C)(OC)C[C@@H](C)C(=O)[C@H](C)[C@@H](O)[C@]1(C)O [Clarithromycin] | 0.775 ± 0.08
CN1CCN(CCCN2c3ccccc3Sc3ccc(C(F)(F)F)cc32)CC1 [Trifluoperazine hydrochloride] | 0.0307 ± 0.02
NNCCc1ccccc1 [Phenelzine sulfate] | 0.957 ± 0.077
O=C(O[C@@H]1C[C@@H]2C[C@H]3C[C@H](C1)N2CC3=O)c1c[nH]c2ccccc12 [Dolasetron mesylate] | 1.28 ± 0.048
CC(C)NCC(O)c1ccc(NS(C)(=O)=O)cc1 (stereo not drawn) [Sotalol hydrochloride] | 1.48 ± 0.42
Cc1ncc([N+](=O)[O-])n1CC(O)CCl (stereo not drawn) [Ornidazole] | 1.03 ± 0.25
CNC(=N)NCCC[C@H](N)C(=O)O [L-NMMA acetate] | 1.02 ± 0.047
C[C@]12CCC(=O)C=C1CC[C@@H]1[C@@H]2C(=O)C[C@@]2(C)[C@H]1CC[C@]2(O)C(=O)CO [Cortisone] | 1.26 ± 0.51
CCOC(=O)c1ccc(OC(=O)CCCCCNC(=N)N)cc1 [Gabexate mesilate] | 1.06 ± 0.12
CNCCC=C1c2ccccc2CCc2ccccc21 [Nortriptyline hydrochloride] | 0.234 ± 0.12
O=C(O[C@@H]1Cc2c(O)cc(O)cc2O[C@@H]1c1cc(O)c(O)c(O)c1)c1cc(O)c(O)c(O)c1 [Epigallocatechin gallate] | 1.37 ± 0.051
CC(C)Oc1ccc2c(=O)c(-c3ccccc3)coc2c1 [Ipriflavone] | 1.37 ± 0.17
CC(=O)Oc1ccccc1C(=O)Nc1ncc([N+](=O)[O-])s1 [Nitazoxanide] | 1.96 ± 0.066
CCN1CCN(C(=O)N[C@@H](C(=O)N[C@@H]2C(=O)N3[C@@H]2SC(C)(C)[C@@H]3C(=O)O)c2ccccc2)C(=O)C1=O [Piperacillin sodium] | 1.55 ± 0.081
CC=CC(=O)N(CC)c1ccccc1C [Crotamiton] | 0.748 ± 0.22

SMILES | Hoechst total cell count ratio
Nc1nc(Cl)nc2c1ncn2[C@H]1C[C@H](O)[C@@H](CO)O1 [Cladribine] | 0.899 ± 0.25
CCOC(=O)[C@H](CCc1ccccc1)N[C@@H](C)C(=O)N1Cc2ccccc2C[C@H]1C(=O)O [Quinapril hydrochloride] | 1.13 ± 0.14
C[N+]1(C)CCC(OC(=O)C(O)(c2ccccc2)C2CCCC2)C1 (stereo not drawn) [Glycopyrronium bromide] | 1.13 ± 0.05
CSc1ccc2c(c1)N(CCC1CCCCN1C)c1ccccc1S2 (stereo not drawn) [Thioridazine hydrochloride] | 0.238 ± 0.085
CC(C)NCC(O)COc1cccc2[nH]ccc12 (stereo not drawn) [Pindolol] | 1.34 ± 0.47
CC(C)n1c(/C=C/C(O)CC(O)CC(=O)O)c(-c2ccc(F)cc2)c2ccccc21 (stereo not drawn) [Fluvastatin] | 0.454 ± 0.061
CCOC(=O)c1ncn2c1CN(C)C(=O)c1cc(F)ccc1-2 [Flumazenil] | 0.672 ± 0.15
CC(C)(C)NC(=O)[C@@H]1C[C@@H]2CCCC[C@@H]2CN1C[C@@H](O)[C@H](Cc1ccccc1)NC(=O)[C@H](CC(N)=O)NC(=O)c1ccc2ccccc2n1 [Saquinavir mesylate] | 0.091 ± 0.042
CC(C)(C)NC(=O)[C@@H]1CN(Cc2cccnc2)CCN1C[C@@H](O)C[C@@H](Cc1ccccc1)C(=O)N[C@H]1c2ccccc2C[C@H]1O [Indinavir sulfate] | 1.2 ± 0.14
COCCCOc1ccnc(C[S+]([O-])c2nc3ccccc3[nH]2)c1C (stereo not drawn) [Rabeprazole] | 1.15 ± 0.23
CN(C)CCOC(c1ccccc1)c1ccccc1 [Diphenhydramine hydrochloride] | 1.43 ± 0.2
Cc1nc2n(c(=O)c1CCN1CCC(c3noc4cc(F)ccc34)CC1)CCCC2 [Risperidone] | 1.64 ± 0.24
CC[C@H](C)C(=O)O[C@H]1C[C@H](O)C=C2C=C[C@H](C)[C@H](CC[C@@H](O)C[C@@H](O)CC(=O)O)[C@H]21 [Pravastatin sodium] | 1.12 ± 0.23
CCc1nn(CCCN2CCN(c3cccc(Cl)c3)CC2)c(=O)n1CCOc1ccccc1 [Nefazodone hydrochloride] | 0.832 ± 0.34
CN(C)CC[C@@H](c1ccc(Cl)cc1)c1ccccn1 [Dexchlorpheniramine maleate] | 1.24 ± 0.12
CC(C)(C)C(O)/C=C/c1ccc2c(c1)OCO2 (stereo not drawn) [Stiripentol] | 1.62 ± 0.15
CC[C@@]1(O)C(=O)OCc2c1cc1n(c2=O)Cc2cc3c(CN(C)C)c(O)ccc3nc2-1 [Topotecan hydrochloride] | 0.4 ± 0.049
NC(=O)c1ncn([C@@H]2O[C@H](CO)[C@@H](O)[C@H]2O)n1 [Ribavirin] | 1.15 ± 0.14
CN1CCC(=C2c3ccccc3CC(=O)c3sccc32)CC1 [Ketotifen fumarate] | 1 ± 0.099

From the supplement of paper PMC7238544
